These results are taken from the RNAGym collection of RNA variant scans (doi:10.1073/pnas.2313332121).

Variants at the background level are over-represented here.

B1: TPR 5TU (parent)
chain: GGAUCUUCUCGAUCUAACAAAAAAGACAAAUCUGCCACAAAGCUUGAGAGCAUCUUCGGAUGCAGAGGCGGCAGCCUUCGGUGGCGCGAUAGCGCCAACGUUCUCAACUAUGACACGCAAAACGCGUGCUCCGUUGAAUGGAGUUUAUCAUG

The data set covers variants of B1. Kind of data set: polymerase ribozyme fitness, log enrichment relative to wild type (log ratio); higher = more active; in vitro selection for triplet polymerase activity. An outline of the steps: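 Fitness is a logarithmic measure of how a genotype enriched relative to the wild type, with replicate averages weighted by inverse variance. The logarithm uses base 2, and enrichment came from Illumina sequencing of input and output libraries. Those libraries were PCR-built, transcribed mutants of each subunit of a heterodimeric triplet polymerase ribozyme, passed through one triplicate in vitro selection round that included frozen incubation at −7 °C, gel excision of extended constructs and streptavidin-bead capture. Genotypes were kept only if they had ≥10 input reads and ≥1 read per output.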
C8A C51G U55A C85G C99U C105A G140A: the “polymerase ribozyme fitness (log ratio)” value is no more than -4.2.
In the case of C8G G62C G100A A122C A137U it was no more than -4.2.
As for C8A A64G A91G, the “polymerase ribozyme fitness (log ratio)” value was no more than -4.2.
On to C8A A22U A41C C93A G136C, for which the “polymerase ribozyme fitness (log ratio)” value was no more than -4.2.
Turning to C8G A49G U82G C87U G94A A120G, the “polymerase ribozyme fitness (log ratio)” value is no more than -4.2.
On to C8G A22U A26U A37C G58A A60G G84C, for which the “polymerase ribozyme fitness (log ratio)” value was no more than -4.2.
In the case of U7G G48A G59A A60G A97G it was -3.81; in that of U7G G50U C87A C105U U148A, no more than -4.2; in that of C8G A29G G58U G94A G140A A147U, no more than -4.2.
Regarding C8G G11C C14U G50C C95U C132A U135A A137C, the “polymerase ribozyme fitness (log ratio)” value is no more than -4.2.
As for C8G A52C G84U G92A G140U, the figure is no more than -4.2; as for C8G C35U G58A C76A G140C G143A, no more than -4.2; as for C8A A19G G71A U82G G136U, no more than -4.2.
As for C8G C18U G50U C54U C79G G86A, the figure is no more than -4.2; as for C8G C32G C57A C85U C118G A142U, no more than -4.2; as for C8A A22C C35U G48C A73U, no more than -4.2.
In the case of C8A A29C it was no more than -4.2; in that of C8G A22U A24C A41C G80C C87A G100U G141C, no more than -4.2; in that of C8A G83A C87A A138U G143A, no more than -4.2.
Turning to C8A C54U C87U G92C U102G A113U, the “polymerase ribozyme fitness (log ratio)” value is no more than -4.2.
In the case of U7G C10G C36U G67A C125U G141C C149G it was no more than -4.2; in that of C8G A17G U61A C87G A119G, no more than -4.2.
For C8A G25U G50A C57A C87A A107U C116G U148C, the “polymerase ribozyme fitness (log ratio)” value was no more than -4.2.
Consider C8G C10A U56A C87A, for which the “polymerase ribozyme fitness (log ratio)” value was no more than -4.2.
For the variant C8G G42C A47U C79G C87U A98U A138U, the “polymerase ribozyme fitness (log ratio)” value was no more than -4.2.
As for U7G A30G A91C, the figure is no more than -4.2; as for C8G A16C A21U U44A G94C A107G G140U G143C U145G, no more than -4.2.
In the case of C8G A150C G152A it was no more than -4.2; in that of C8G A23U U45C G62U G68C C76A G128U U145C, no more than -4.2; in that of C8A A22G A40U C85U C132U, no more than -4.2.
Regarding C8A A16G A19C A20G C43U U53A C85U C96U A119U A120C U134A, the “polymerase ribozyme fitness (log ratio)” value was no more than -4.2.
As for C8G G84A G128U, the figure is no more than -4.2; as for C8G A22C C69A G81U G84U, no more than -4.2; as for U7G C10G A19U C85G A98G C105A G136U U144C, no more than -4.2.
As for C8G C10G A20U A29U C95U A107G, the figure is no more than -4.2; as for U7G C14U A28U A30C C32A A47C G58C C85U A107U, no more than -4.2; as for C8G A24G C76A U139A A142C U144C U148G, no more than -4.2.
In the case of U7G A30G A73U G92U U144C, the “polymerase ribozyme fitness (log ratio)” value is no more than -4.2.
Turning to U7G A37C C95G, the “polymerase ribozyme fitness (log ratio)” value was no more than -4.2.
As for C8A A26U, the figure is -3.66; as for C8G C93A, no more than -4.2.
As to U7G C27G U44A C87A, the “polymerase ribozyme fitness (log ratio)” value is no more than -4.2.
In the case of U7G C8G G71C U82C G86U C87U G112A A115C it was no more than -4.2; in that of C8G A12G A29U C36A U44A G68U, no more than -4.2; in that of C8G U13G A40C U77A G94A A97C C99U A113G G117U U139G U144G, no more than -4.2.
For C8G A29U A41G U61A G68A U82C A89G C116U, the “polymerase ribozyme fitness (log ratio)” value is no more than -4.2.
For the variant C8G A12G C35U C75A G86U U109G U127G A137G, the “polymerase ribozyme fitness (log ratio)” value was no more than -4.2.
Take C8G A24C C32U C57U: the “polymerase ribozyme fitness (log ratio)” value is no more than -4.2.
In the case of C8G C96U A121G G140C A150U it was no more than -4.2; in that of C8G C10A C54G C72G G74U G83U C87U G94U C103U, no more than -4.2.
For C8G A26C G74A C85G, the “polymerase ribozyme fitness (log ratio)” value was no more than -4.2.
As for C8G U31A A37C A49U U77C, the figure is no more than -4.2.
Take C8A C38A G80C: the “polymerase ribozyme fitness (log ratio)” value is no more than -4.2.
In the case of C8A U55A C79U G84A C108G G124A it was no more than -4.2.
In the case of C8A U33A A37U C93U C105A G143A it was no more than -4.2; in that of C8A A16U U55A C87A G124C, no more than -4.2; in that of C8A G42U G50A G74U C95U, no more than -4.2.
As for U7G U15G U56G C93A A115C U130G, the figure is no more than -4.2; as for C8G A22U G81C U82C C95G G140C C149A, no more than -4.2.
C8G C87G: the “polymerase ribozyme fitness (log ratio)” value was no more than -4.2.
As to C8G C87A, the “polymerase ribozyme fitness (log ratio)” value is no more than -4.2.
For the variant C8G C87U, the “polymerase ribozyme fitness (log ratio)” value is -3.36.
In the case of C8A A17U A23U A26G C27G C54A G83A C118A it was no more than -4.2; in that of U7G C69A U109C U130G A137U, no more than -4.2; in that of C8A C10U U15A G34A U55A C69A C76U G80C C87G A89C A107C C116U, no more than -4.2.
On to C8A C57A C76U C85U G140U G141A, for which the “polymerase ribozyme fitness (log ratio)” value was no more than -4.2.
In the case of C8G A21G G83C, the “polymerase ribozyme fitness (log ratio)” value was no more than -4.2.
In the case of C8A U13G C51G A60G C93A C99U it was no more than -4.2; in that of C8G G25U A60G C85U U90C A142C U148C, no more than -4.2; in that of C8G C35U A40U G68A G86U G141U G152U, no more than -4.2.
C8G A24C G94C C131U: the “polymerase ribozyme fitness (log ratio)” value was no more than -4.2.
On to C8A A52C C57U C85U, for which the “polymerase ribozyme fitness (log ratio)” value is no more than -4.2.
In the case of C8A A39U G94C A119U it was no more than -4.2; in that of C8G C14U A29U U61C G86C C105G A119C, no more than -4.2; in that of C8G C75G U78A C96U U130G, no more than -4.2.
As to U7G A47G U77A, the “polymerase ribozyme fitness (log ratio)” value was no more than -4.2.
In the case of C8A U13G G34A C87G U104G G140A it was no more than -4.2; in that of C8A A20U C36U C63G C96U C99U G152U, no more than -4.2; in that of C8A A30U G71A U82G C95A C103G U134A G141U, no more than -4.2.
In the case of U7G U55A U56A A66C G68U G94A C105U A113U U135G it was no more than -4.2; in that of C8A A47G G80C G117C, no more than -4.2; in that of C8A A16C U53A G84C C105A C125U G141C, no more than -4.2.
In the case of C8G A26U G42C G80A C85G C114A it was no more than -4.2; in that of C8G G68A G83C G88A A91U, no more than -4.2.
